# The source gives no read counts; variants with many changes may rest on few reads.
# B1: CPEB3 Ribozyme (parent)
# chain: UAACAGGGGGCCACAGCAGAAGCGUUCACGUCGCAGCCCCUGUCAGAUUCUGGUGAAUCUGCGAAUUCUGCUGUAUAUCUC
# Variants of: B1
# Assay: self-cleavage, relative activity (ratio to wild type); higher = more cleavage; in vitro, sequencing
# How it was run: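 For each CPEB3 ribozyme variant, relative activity is its cleaved/total read fraction divided by the unmutated ribozyme's. Barcoded error-prone PCR libraries were transcribed by T7 RNA polymerase (5 hours, 37°C) and held in DNase I for 15 min before an EDTA stop, with cleavage occurring throughout. Template-switching reverse transcription and Illumina sequencing were used to read the RNAs. A 5-read minimum applied, and results are the mean of three batches.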
row,Variant,self-cleavage
1,UAACAGGGGGCCACAGCAGAAGCGUUCACGUCGCAGCCCCUGCCAGAUUCUGGUGUAUCUGCGUAUUCUGCUGUAUAUCUC [U43C A56U A64U],0.13
2,UAACAGGGGGCCACAGCAGAAGCGUUCACGUCGCAGCCCCUGCCAGAUUCUGGUGUAUCUGCGAAUUCUGCUGUCUAUCUC [U43C A56U A75C],0.17
3,UAACAGGGGGCCACAGCAGAAGCGUUCACGUCGCAGCCCCUGCCAGAUUCUGGUGACUCCGCGAACUCUGCCGUAUAUCUC [U43C A57C U60C U66C U72C],0.29
4,UAACAGGGGGCCACAGCAGAAGCGUUCACGUCGCAGCCCCUGCCAGAUUCUGGUGAGUCUGCGCAUUCUGCUGGAUAUCUC [U43C A57G A64C U74G],0.15
5,UAACAGGGGGCCACAGCAGAAGCGUUCACGUCGCAGCCCCUGCCAGAUUCUGGUGAGUCUGCGUAUUCUGCUGUAUAUCUC [U43C A57G A64U],0.14
6,UAACAGGGGGCCACAGCAGAAGCGUUCACGUCGCAGCCCCUGCCAGAUUCUGGUGAGUCUGCGUAUCCAGCUGUAUAUCUC [U43C A57G A64U U67C U69A],0.1
7,UAACAGGGGGCCACAGCAGAAGCGUUCACGUCGCAGCCCCUGCCAGAUUCUGGUGAGUCUGCGAGUUCUGCCGUAUAUCUC [U43C A57G A65G U72C],0.2
8,UAACAGGGGGCCACAGCAGAAGCGUUCACGUCGCAGCCCCUGCCAGAUUCUGGUGAGUCUGCGAAUUCUGCUGUGUAUCUC [U43C A57G A75G],0.15
9,UAACAGGGGGCCACAGCAGAAGCGUUCACGUCGCAGCCCCUGCCAGAUUCUGGUGAGUCUACGAGUUCUGCUGUAAAUCUC [U43C A57G G61A A65G U76A],0.14
10,UAACAGGGGGCCACAGCAGAAGCGUUCACGUCGCAGCCCCUGCCAGAUUCUGGUGAGUCUGCGAACUCUGCUGUAUAUCUC [U43C A57G U66C],0.11
11,UAACAGGGGGCCACAGCAGAAGCGUUCACGUCGCAGCCCCUGCCAGAUUCUGGUGAGUCUGCGAACUCUGCUGUAUAACUC [U43C A57G U66C U78A],0.23
12,UAACAGGGGGCCACAGCAGAAGCGUUCACGUCGCAGCCCCUGCCAGAUUCUGGUGAGUCUGCGAAUGCUGCUGUAUAUCUC [U43C A57G U67G],0.14
13,UAACAGGGGGCCACAGCAGAAGCGUUCACGUCGCAGCCCCUGCCAGAUUCUGGUGAGUCUGCGAAUUCUGCUGUAUAUCGC [U43C A57G U80G],0.2
14,UAACAGGGGGCCACAGCAGAAGCGUUCACGUCGCAGCCCCUGCCAGAUUCUGGUGAUUCUGCGAAUUCUGCUGUAUGUCUC [U43C A57U A77G],0.2
15,UAACAGGGGGCCACAGCAGAAGCGUUCACGUCGCAGCCCCUGCCAGAUUCUGGUGAAUCUGCGGAUUCUGCCGUGUAUCUC [U43C A64G U72C A75G],0.53
16,UAACAGGGGGCCACAGCAGAAGCGUUCACGUCGCAGCCCCUGCCAGAUUCUGGUGAAUCUGCGGAUUCUGCUGCAUAUCUC [U43C A64G U74C],0.85
17,UAACAGGGGGCCACAGCAGAAGCGUUCACGUCGCAGCCCCUGCCAGAUUCUGGUGAAUCUGCGUAUUCUGCUGUGUAUCUC [U43C A64U A75G],0.13

row,Variant,self-cleavage
1,UAACAGGGGGCCACAGCAGAAGCGUUCACGUCGCAGCCCCUGCCAGAUUCUGGUGAAUCUGCGUAUUCUGCUGUAUAUCUU [U43C A64U C81U],0.32
2,UAACAGGGGGCCACAGCAGAAGCGUUCACGUCGCAGCCCCUGCCAGAUUCUGGUGAAUCUGCGUAUUCGGCCGUAUAUCUC [U43C A64U U69G U72C],0.17
3,UAACAGGGGGCCACAGCAGAAGCGUUCACGUCGCAGCCCCUGCCAGAUUCUGGUGAAUCUGCGUAUUCUGCCGUAUGUCUC [U43C A64U U72C A77G],0.13
4,UAACAGGGGGCCACAGCAGAAGCGUUCACGUCGCAGCCCCUGCCAGAUUCUGGUGAAUCUGCGAGUUCUGCUAUAUAUCUC [U43C A65G G73A],0.69
5,UAACAGGGGGCCACAGCAGAAGCGUUCACGUCGCAGCCCCUGCCAGAUUCUGGUGAAUCUGCGAGUUCUGCAGUAUAUCUC [U43C A65G U72A],0.18
6,UAACAGGGGGCCACAGCAGAAGCGUUCACGUCGCAGCCCCUGCCAGAUUCUGGUGAAUCUGCGAGUUCUGCUGUACUUCUC [U43C A65G U76C A77U],0.12
7,UAACAGGGGGCCACAGCAGAAGCGUUCACGUCGCAGCCCCUGCCAGAUUCUGGUGAAUCUGCGAUUUCUGCUGUUCAUCUC [U43C A65U A75U U76C],0.14
8,UAACAGGGGGCCACAGCAGAAGCGUUCACGUCGCAGCCCCUGCCAGAUUCUGGUGAAUCUGCGAUUUCUGCUGUAUUUCUC [U43C A65U A77U],0.09
9,UAACAGGGGGCCACAGCAGAAGCGUUCACGUCGCAGCCCCUGCCAGAUUCUGGUGAAUCUGCGAUCUCUGCAUUAUAUCUC [U43C A65U U66C U72A G73U],0.15
10,UAACAGGGGGCCACAGCAGAAGCGUUCACGUCGCAGCCCCUGCAAGAUUCUGGUGAAUCUGCGAAUUCUGCUGAAUAUCUC [U43C C44A U74A],0
11,UAACAGGGGGCCACAGCAGAAGCGUUCACGUCGCAGCCCCUGCGAGAUUAAGGUGAAUCUGCGAAUUCUGCUGUAUAUCCC [U43C C44G C50A U51A U80C],0.1
12,UAACAGGGGGCCACAGCAGAAGCGUUCACGUCGCAGCCCCUGCCAGAUUACGGUGAAUCUGCGAAUUCUGCUGCAUAUCUC [U43C C50A U51C U74C],0.61
13,UAACAGGGGGCCACAGCAGAAGCGUUCACGUCGCAGCCCCUGCCAGAUUCUGGUGAAUACGCGAAUUCUGCUGUAUAUCUC [U43C C59A U60C],0.12
14,UAACAGGGGGCCACAGCAGAAGCGUUCACGUCGCAGCCCCUGCCAGAUUCUGGUGAAUUUGCGAAUUCUGCUGUAUAUCCC [U43C C59U U80C],0.46
15,UAACAGGGGGCCACAGCAGAAGCGUUCACGUCGCAGCCCCUGCCAGAUUCUGGUGAAUCUGAAAAUUCUGCUGUAUAUCUC [U43C C62A G63A],0.13
16,UAACAGGGGGCCACAGCAGAAGCGUUCACGUCGCAGCCCCUGCCAGAUUCUGGUGAAUCUGCGAAUUCUGUGGUAUAUCUC [U43C C71U U72G],0.1
17,UAACAGGGGGCCACAGCAGAAGCGUUCACGUCGCAGCCCCUGCCAGAUUCUGGUGAAUCUGCGAAUUCUGUUGAAUAGCUC [U43C C71U U74A U78G],0.38

# — the RNAGym collection of RNA variant scans (doi:10.1093/nar/gkz1192)
